# Out of some 150,000 compounds screened, about 540 (0.36%) showed an effect of 50% or more. Some of the results follow.
# Test system: Plasmodium falciparum
# Test: Primary screen in NF54 nanoGlo assay, in single point, at 2uM, 72h; a lower Z score goes with more inhibition
# Assay type: functional, Erythrocyte
# Settings: timepoint 72 hour
Structure (SMILES),% Inhibition,Z score
CN(C)c1ccc(-c2ccc3nc(C(=O)N4CCCC4)cn3c2)cc1,-13%,1.3
CNS(=O)(=O)CCNCc1c(C)cc(C)c(CO)c1C,-6%,1.27
O=C(c1ccoc1)N1CCC[C@H](c2ncc3n2CCCC3)C1,-10%,1.62
COC(=O)c1ccccc1NC(=O)Cn1cc(-c2ccccc2)c(N(C)C)n1,-5%,0.61
O=C(c1ccno1)N1CCC(Oc2ccccn2)CC1,-9%,1.73
CCOc1ccc(C(=O)N2CCN(c3ncc(F)cn3)C(=O)C2)cc1,13%,-1.63
O=C(Nc1ccn2nccc2c1)c1ccc(F)cc1,-5%,0.74
COc1ccc(NC(=O)[C@H](CC(N)=O)NC(=O)CC(C)C)cc1,6%,-1.03
CCc1nccn1CCCNCC[C@@H](C)CCCC(C)(C)O,-8%,0.74
O=C(CCOc1ccc(Br)cc1F)NCC(F)(F)F,-13%,1.07
O=C(O)c1csc(S(=O)(=O)Nc2cccc3c2CCCC3)c1,-2%,0.3
O=C(NC1CCN(Cc2ccccc2)CC1)[C@H]1CCCN(c2cnc3nccnc3c2)C1,-10%,1.78
Cc1onc(C(=O)N2CCCN(CC3CC3)[C@H](C(C)C)C2)c1CO,-20%,1.89
Cn1ccnc(OC2Cc3ccccc3C2)c1=O,8%,-1.08
O=C1c2ccccc2N[C@H](c2ccccc2)N1c1ccccn1,-16%,2.75
O=C(CCC(=O)N1CCC(Oc2ccccn2)CC1)c1ccccc1,-8%,1.57
N#Cc1c[nH]c(C(=O)N2CCN(Cc3cccnc3N)C[C@H](O)C2)c1,-7%,0.72
O=C(NCC1CCN(C(=O)c2ccco2)CC1)c1ccoc1,-4%,0.75
Cc1noc(C)c1S(=O)(=O)N1CCc2ccccc2C1,8%,-1.04
CC1=NN(S(=O)(=O)c2c(C)nn(C)c2C)[C@@](O)(C(F)(F)F)C1,-6%,0.88
CC[C@@H](CNC(=O)c1cccc(-n2cnnn2)c1)N1CCCC1,-2%,0.41
Cc1cc(C(=O)[C@@H](C#N)C(=O)c2c[nH]c3cc(Cl)ccc23)nn1C,3%,-0.47
CCOCCCNC(=O)c1cc(CC)n[nH]1,-11%,2.14
COc1cc(C(=O)O[C@@H](C)c2nc(C)no2)ccc1C,-9%,1.31
CC(NC(=O)N(C)CC(O)C1CC1)c1ccc(F)cc1Cl (stereo not given),-5%,0.45
NC(=O)c1cccnc1N1CCN(Cc2ccc3c(c2)OCO3)C(=O)C1,-13%,2.15
Cc1nc([C@H](C)NC(=O)CCC(=O)Nc2cccc(O)c2)n[nH]1,-7%,1.08
O=C(Cn1cc(OCc2ccccc2)c(=O)cc1CO)Nc1ccc2c(c1)OCO2,-3%,0.37

Structure (SMILES),% Inhibition,Z score
COc1cc(OC)c(C(=O)N2CC(O)(c3ccccc3)C2)cc1OC,-2%,0.27
Cc1ccccc1C(=O)N1C(C(=O)NCC2CCCO2)COC12CCN(C(=O)c1ccccc1F)CC2 (stereo not given),-3%,0.3
O[C@@H]1CCN(Cc2nc3cc(Br)ccc3[nH]2)C1,-7%,0.97
Cc1cc(=O)[nH]c(N2CCC(NC(=O)CC3CCCCC3C)C2)n1 (stereo not given),-6%,1.25
Cc1csc([C@H](C)NCc2ccc(F)c(C#N)c2)n1,1%,-0.09
COC[C@H](NC(=O)c1ccn2c(C)cnc2c1)c1ccco1,0%,-0.02
O=C(c1cc2ccccc2[nH]1)N1C2CCC1CC(=C1CC1)C2,10%,-1.34
c1ccc2c(c1)CCO[C@H]2Cn1ccnc1-c1cn(C2CCNCC2)nn1,-7%,1.38
C[C@H]1COCCN1C1CCN(c2ccc(S(=O)(=O)C(F)F)cc2)CC1,-4%,0.62
COCc1nc(OC)cc(N2CC3(C[C@H](O)CNC3=O)C2)n1,3%,-0.44
COc1ccc(C(=O)NCCCc2nnc3ccccn23)o1,-9%,1.7
CN=C(NCCOC)NCc1cccc(C(F)(F)F)c1,2%,-0.32
CCCn1ccnc1CN1CCN(Cc2ccc3c(c2)OCO3)C(=O)C1,0%,0
COCCNC(=O)[C@@H]1Cn2c(n[nH]c2=O)CN1C(=O)CCCc1ccccc1,-14%,1.69
Cc1cnn(CCC(=O)N2CC(=O)N(CC3CC3)C2)c1,-9%,1.73
CCOC1CC(NC(=O)NC2CCC(=O)NC23CCC3)C12CCC2 (stereo not given),3%,-0.37
O=C(c1ccc(OC2CCN(C3CCCCCC3)CC2)cc1)N1CCCCC1,-11%,1.45
CCc1ccc(S(=O)(=O)Oc2ccc3c(c2)CCC(=O)N3)cc1,-10%,1.39
NC(=O)c1ccc(C(=O)N2CC3CN(c4ccccc4)CC3C2)cc1 (stereo not given),-18%,2.4
O=C(N[C@H]1CS(=O)(=O)c2ccccc21)c1cc2ccccc2[nH]1,-12%,1
COc1cccc(NCc2ccn(C)n2)n1,-14%,1.7
CCOc1ccc(C(=O)NCCN2CCN(S(=O)(=O)c3ccccc3)CC2)cc1,-15%,1.8
CS(=O)(=O)N[C@H]1CCN2C(=O)c3cc(-c4ccc(Cl)cc4)ccc3NC(=O)[C@@H]2C1,26%,-2.94
OC[C@H](NCC1CC=CC1)c1ccc(F)cc1F,-9%,0.92
Cc1ccc(-n2cnc3c2CCN(c2nc4c(cc2C#N)COCC4)C3)cc1,0%,-0.03
Cc1ccc(C2=NOC3(CCN(C(=O)Cc4ccccc4C)CC3)N2)cc1,-18%,2.17
Cn1nccc1CC(=O)N1CCCc2ccc(F)c(Cl)c21,-10%,1.37
